“And” between values parts separate entries of the source, which are not always exact repeats. Identical values can stand only once. The campaign covered roughly 420,000 compounds. About 50,000 (12%) were called active. The shares of active, inactive and inconclusive entries below differ from those in the screen. Calls come from the whole dose curve; as a rule, active = well fitted inhibition curve with a large enough effect; inconclusive = small, poorly fitted or top-dose-only effect; inactive = flat fitted curve, though single readings scatter. Potencies of inconclusive entries are left out as doubtful fits.
Assay: qHTS for Inhibitors of human tyrosyl-DNA phosphodiesterase 1 (TDP1): qHTS in cells in presence of CPT; note: nearly all actives have a fitted effect of over 55% in size
Settings: chicken DT40 Tdp1-/-;hTDP1 cells + 20 nM CPT, ATP luminescence, 48 h; activity change, negative = growth inhibition: at 46.2 µM (top of the series) unless noted
In short: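 Chicken DT40 Tdp1-/- cells stably complemented with human TDP1 were seeded at 400 cells/well in medium containing 20 nM camptothecin, exposed to pin-transferred compounds, and grown at 37 °C for at least 48 hr. Viability was read as ATP luminescence.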
% is set by controls: 0 for no effect and ±100 for the full control effect; potency is the fitted concentration of half-maximal effect; tags give direction and shape of the fitted curve.

Compound | Potency | activity change, negative = growth inhibition
O=C(NC(=S)Nc1cc(C(F)(F)F)ccc1N1CCOCC1)c1sc2ccccc2c1Cl | inconclusive [inhibitor, single point] | 
Oc1ccc(/C=N/N=C/c2ccc(O)cc2)cc1 | inactive | 
CCN1CCc2c(sc(NC(=O)c3ccc(S(=O)(=O)N(CC)c4ccccc4)cc3)c2C(N)=O)C1 | inconclusive [inhibitor, single point] | 
O=C(O)CNC(=O)CC1S/C(=N/N=C/c2ccccc2O)NC1=O (stereo not drawn) | active: 20.6 µM | 
CC(C)c1nc2sc3c(NCc4ccccc4)ncnc3c2c2c1COC(C)(C)C2 | active: 9.2 µM | 
Cc1ccc(-n2nc(C)c3c(C(=O)NCCc4ccc(S(N)(=O)=O)cc4)cc(C)nc32)cc1 | inconclusive [inhibitor, single point] | 
NC(=O)C1CCN(C(=O)c2ccc3nc(-c4ccccc4)c(-c4ccccc4)nc3c2)CC1 | inconclusive [inhibitor, single point] | 
Cc1sc2ncnc(NCCCN3CCCC3=O)c2c1C | inactive | 
CCOC(=O)CCNCc1ccc(OC)c(OC)c1 | inconclusive [inhibitor, single point] | 
COc1ccccc1CNC(=O)c1cc(S(=O)(=O)N2CCCC(C)C2)cn1C (stereo not drawn) | inconclusive [inhibitor, single point] | 
c1ccc([C@H]2CNCCN2CCc2cccc3ccccc23)cc1 | inconclusive [inhibitor, single point] | 
O=C(Nc1ccc(Br)cc1)C1CCCN(C2=NS(=O)(=O)c3ccccc32)C1 (stereo not drawn) | inconclusive [inhibitor, single point] | 
COc1cccc(C=Nc2cc(C(C)C)c(O)cc2C)c1O | active: 4.11 µM | 
CCc1nnc(NC(=O)CSc2nc3c([nH]c4ccccc43)c(=O)n2CCOC)s1 | inactive | 
CCCCN(C)CCCNC(=O)c1cn(CC)c2ccc(S(=O)(=O)N3CCc4ccccc4C3)cc2c1=O | active: 18.4 µM and active: 20.6 µM | 
C=Cn1ccnc1CC(O)c1ccc(OC)cc1 (stereo not drawn) | inactive | 
COc1ccc(CC(=O)N(C)c2ccccc2)cc1S(=O)(=O)N1CCOCC1 | inactive | 
S=c1nccc(-c2cccs2)[nH]1 | inconclusive [inhibitor, single point] | 
CCC/C(O)=C1\C(=O)CC(C)(C)CC1=Nc1ccccc1O | inconclusive [inhibitor, single point] | 
CC(C)C[C@H](NC(=O)c1nc[nH]c1C(=O)N1CCc2ccccc2C1)C(=O)OCc1ccccc1 | inconclusive [inhibitor, single point] | 
COc1ccccc1N(C(=O)c1cncc(Br)c1)c1nc(-c2ccc(C)cc2)cs1 | active: 20.6 µM | 
COc1ccccc1CC(NC(C)=O)C(=O)NC1CCN(C(=O)c2cccc(Cl)c2)CC1 (stereo not drawn) | inactive | 
Cn1cccc1C(=O)OCC(=O)Nc1ccc2c(c1)OCCO2 | inactive | 
CCN(CC)S(=O)(=O)c1ccc(N2CCN(C)CC2)c(NC(=O)c2cc(=O)c3ccccc3o2)c1 | inconclusive [inhibitor, single point] | 

Compound | Potency | activity change, negative = growth inhibition
C=CCNC(=S)N1CCC(C(=O)c2ccc3c(c2)OCCO3)CC1 | inconclusive [inhibitor, partial curve] | 
O=C(Nc1cccnc1)c1cc2c(ccc3ccccc32)o1 | inconclusive [inhibitor, partial curve] | 
COc1ccc(C(=O)C2CCCN(Cc3cccn3-c3ccccn3)C2)c(C)c1 (stereo not drawn) | active: 20.6 µM | 
CCOC(=O)c1c(NC(=O)CN2C(=O)NC3(CCCCC3C)C2=O)sc(C)c1C (stereo not drawn) | active: 20.6 µM | 
c1ccc(OCCNc2ccn3nc(-c4ccc(OCCN5CCOCC5)cc4)cc3n2)cc1 | active: 9.2 µM | 
O=C(NCc1ccc(OC(F)(F)F)cc1)C1CC(c2c(Cl)cccc2Cl)=NO1 (stereo not drawn) | inactive | 
C=CCc1cc(C)ccc1OCCOCCN1CCN(C)CC1 | inconclusive [inhibitor, single point] | 
COc1ccc(OC)c(-c2csc(N(Cc3ccco3)C(=O)c3ccco3)n2)c1 | inconclusive [inhibitor, single point] | 
S=C(NCc1ccc(Cl)cc1)Nc1ccccc1 | inconclusive [inhibitor, single point] | 
CN(C)S(=O)(=O)c1ccc(C(=O)Nc2nc(-c3cc4ccccc4o3)cs2)cc1 | active: 10.3 µM | 
CN(CC(=O)Nc1c(Cl)cccc1Cl)C(=O)c1cc2ccccc2cc1O | inactive | 
OCc1ccc(-c2ccccc2)c(-c2ccccc2)c1 | inconclusive [inhibitor, single point] | 
Cc1cccc(NC(=O)Cn2c(SCC(=O)NCc3ccccc3)nc3ccccc32)c1C | inactive | 
O=C(NC1CC1)C1CC(=O)N(C2CCCCC2)C1 (stereo not drawn) | inactive | 
FC(F)(F)c1cc(-c2ccco2)nc2ncnn12 | inactive | 
CCN(CC)S(=O)(=O)c1cc(NC(=O)[C@@H](NC(N)=O)C(C)C)ccc1C | inactive | 
CCS(=O)(=O)Nc1ccc(C2=NN(S(=O)(=O)c3ccc(F)cc3)C(c3ccco3)C2)cc1 (stereo not drawn) |  | inconclusive: -31.4% [inhibitor]
CCOc1ccc(-c2cn3nc(CC(C)C)sc3n2)cc1 | inactive | 
O=C1Nc2ccc(S(=O)(=O)N3CCCCCC3)c3cccc1c23 | inconclusive [inhibitor, single point] | 
O=C(Nc1ccc2c(c1)N(S(=O)(=O)c1cccs1)CCC2)c1c(F)cccc1Cl | inconclusive [inhibitor, single point] | 
COc1ccc(C)cc1NC(=O)CSc1nnnn1Cc1ccccc1 | inconclusive [inhibitor, single point] | 
Cc1cccc(C(C)(C)C)c1OCCCCN1CCCC1 | inconclusive [inhibitor, single point] | 
COc1ccccc1C(=O)NC(CCSC)C(=O)OCC(=O)N1CCN(S(=O)(=O)c2ccc(C)cc2)CC1 (stereo not drawn) | inactive | 
Cn1cccc1/C=N/NC(=O)c1cc(-c2cccs2)nc2ccccc12 | active: 8.2 µM | 
